Earlier results as cited in patent publication US11033516B1, “Combination therapies with disulfiram” (Spring Discovery, Inc., priority 2020, dated 2021).

Test system: P-glycoprotein and CYP3A4
Details: in HeLa cell; cited from earlier work

For O=C(/C=C/C=C/c1ccc2c(c1)OCO2)N1CCCCC1 [Piperine], the “IC50 value, inhibits P-glycoprotein and CYP3A4 activities” value is listed as “activities with an IC50 value of 61.94 ± 0.054 μg/mL”.
